PubChem BioAssay AID485313 (National Center for Advancing Translational Sciences (NCATS), 2010)
Hit rate of the full screen: of about 320,000 compounds, about 7,600 (2.4%) were called active. The inconclusive results got no clear call from the source; some entries with a clear call stand among them for comparison. The call rests on the fitted dose curve; in most records, active means well fitted activation curve with a large enough effect; inconclusive means small, poorly fitted or top-dose-only effect; inactive means no such curve, though single readings can be large or run the other way. Potencies of inconclusive entries are left out as doubtful fits.

test: qHTS Assay for NPC1 Promoter Activators; conditions: Huh7 NPC1 promoter luciferase reporter, 24 h; series mostly up to 9.22 µM; further: nearly all actives have a fitted effect of over 60% in size;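 on activation: reporter is driven by a mutant NPC1 promoter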
Summary of the method: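 In 1536-well qHTS, Huh7 cells harboring an NPC1 promoter–luciferase construct received compound for 24 h; activation was quantified by luminescence following luciferase reagent addition.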
Potency means the concentration at half of the fitted maximal effect; tags describe the fitted curve by direction and shape.

| SMILES | Potency |
| --- | --- |
| C/C(=N/Nc1nc(C)c(C)s1)c1cccc([N+](=O)[O-])c1 | inconclusive [activator, single point] |
| Cc1cc(NC(=O)c2cc3n(n2)C(C(F)(F)F)CC(c2ccco2)N3)no1 (stereo not drawn) | inactive |
| Cc1ccc(-c2nc3ccccc3[nH]2)cc1NC(=O)c1ccc2c(c1)OCO2 | inconclusive [activator, single point] |
| CCOC(=O)c1ccc(NC(=O)c2cnccn2)cc1 | inconclusive [activator, partial curve] |
| C(#CC1CCCCC1)c1ccc2c(c1)COc1c3ccccc3nn1-2 | inconclusive [activator, single point] |
| c1ccc(N2CCN(c3nc4cc5c(cc4s3)OCO5)CC2)cc1 | active: 0.794 µM |
| O=[N+]([O-])c1cccc(/C=N/Nc2ccccn2)c1 | inconclusive [activator, partial curve] |
| CN(C(=O)Nc1ccc(Cl)cc1)c1c2c(nn1C)CCCC2 | inactive |
| c1ccc2c(CN3CCSCC3)cccc2c1 | inactive |
| O=C(Cn1ncc(N2CCCC2)c(Br)c1=O)c1ccc(Cl)cc1 | inconclusive [activator, partial curve] |
| O=C(/C=C/c1ccccc1Cl)NC1CCCCC1 | active: 2.82 µM |
| COc1ccc(C(=O)Nc2ccc([N+](=O)[O-])cn2)c(OC)c1 | active: 1.12 µM |
| COc1ccc(C(=O)Cc2ccc(OC)c(OC)c2)cc1 | inconclusive [activator, partial curve] |
| CC(=O)c1c(C)nc(-c2ccc(Cl)cc2)nc1N | active: 3.55 µM |
| CN(C)S(=O)(=O)c1ccc(C(=O)Nc2ccc3c(c2)CCC3)cc1 | inconclusive [activator, single point] |
| CN(C)c1cccc(C(=O)NN2C(=O)NC3(CCCCC3)C2=O)c1 | inconclusive [activator, single point] |
| COc1ccc(C(=O)Nc2cccc(OC(=O)c3ccco3)c2)cc1 | inconclusive [activator, single point] |
| Cc1cnc(NC(=O)/C=C/c2ccc(Br)o2)s1 | inconclusive [activator, single point] |
| COCC(C)NCc1ccccc1C (stereo not drawn) | inactive |
| O=C(Nc1ccc(-c2nc3ccccc3o2)cc1)C1CCCO1 (stereo not drawn) | active: 0.316 µM |
| COc1ccccc1NC(=O)c1ccc(-c2ccccc2[N+](=O)[O-])o1 | inconclusive [activator, single point] |
| Cc1c(/C=N\NC(=O)c2cccc(F)c2)cnn1C | inactive |
| Cc1cccn2cc(-c3ccc(Cl)cc3)nc12 | inconclusive [activator, single point] |
| Cc1ccnc(NC(=O)Nc2ccc(F)cc2)c1 | active: 1.41 µM |
| Cn1cccc1/C=C1\SC(=Nc2ccc(O)cc2)NC1=O | inactive |
| COc1ccc(NC(=O)CSc2nccn2Cc2ccccc2)cc1 | inconclusive [activator, single point] |

| SMILES | Potency |
| --- | --- |
| CCC(=O)Nc1ccc(-c2csc(C)n2)cc1 | inconclusive [activator, single point] |
| O=C(NC(=S)Nc1ccc(N2CCOCC2)cc1)c1cccs1 | inconclusive [activator, partial curve] |
| Cc1sc2nc3c4ccccc4c(NCc4ccco4)nn3c(=O)c2c1C | inconclusive [activator, partial curve] |
| Cc1ccc(-c2cc(=O)c3cc(C)ccc3[nH]2)cc1 | inconclusive [activator, partial curve] |
| CC(=O)c1ccc(-n2c(C)c(C(C)=O)c3cc(O)ccc32)cc1 | inactive |
| COc1cccc(Nc2ncnc3nc[nH]c23)c1 | inconclusive [activator, partial curve] |
| Oc1ccc(N=Nc2n[nH]c(-c3ccccc3)n2)cc1 | active: 1.58 µM |
| Cc1c(C(=O)Nc2ccccn2)oc2ccccc12 | inconclusive [activator, single point] |
| Nc1c(C(=O)c2ccccc2)oc2ccccc12 | inconclusive [activator, partial curve] |
| O=C(NNC(=O)c1ccc(Cl)cc1Cl)c1cccs1 | inconclusive [activator, partial curve] |
| Cc1ccc(-c2cc(C(=O)NCc3cccs3)no2)cc1 | inconclusive [activator, partial curve] |
| O=C(N=Nc1c(O)n(Cc2ccccc2)c2ccccc12)c1ccc(O)cc1 | inconclusive [activator, single point] |
| Cc1cccc(NC(=O)c2ccc([N+](=O)[O-])cc2Cl)n1 | inactive |
| CN(C)c1ccc(-c2nnn(Cc3ccccc3Br)n2)cc1 | inconclusive [activator, partial curve] |
| COc1ccc(C(=O)O/N=C(\N)c2cccc(C)c2)cc1OC | inconclusive [activator, partial curve] |
| CC(NC(=O)NC(=O)c1ccc(Cl)cc1Cl)C1CC1 (stereo not drawn) | inconclusive [activator, partial curve] |
| O=C(CN1CCOCC1)Nc1ccc(C2CCCCC2)cc1 | inconclusive [activator, single point] |
| COc1ccc(NCc2nnc(SCC(=O)Nc3cc(C)cc(C)c3)o2)cc1 | inactive |
| Cc1cc(=O)oc2cc(OCC(=O)Nc3cccc(S(=O)(=O)N(C)C)c3)ccc12 | inactive |
| COc1ccc(-c2cc(=O)c3cc(O)ccc3o2)cc1 | active: 1.41 µM |
| CCOC(=O)c1oc2cccc(O)c2c1C | inconclusive [activator, single point] |
| COc1ccc(/C(N)=N/OC(=O)CSc2ccccc2)cc1 | inconclusive [activator, partial curve] |
| Cc1ccc(C(=O)NCC(=O)N2CCCCCC2)cc1 | inconclusive [activator, single point] |
| COc1ccccc1OCCNC(=O)c1cc(C2CC2)nc2c1cnn2C(C)C | inactive |
| O=C(NCCc1ccccc1)c1ccc(NCC2CCCO2)c([N+](=O)[O-])c1 (stereo not drawn) | inconclusive [activator, partial curve] |
| COCc1c(C#N)c(NCc2cc(OC)c(OC)c(OC)c2)nc(C)c1[N+](=O)[O-] | inactive |

| SMILES | Potency |
| --- | --- |
| CC(C)C1N=C(c2ccc3c(c2)OCO3)CC(c2ccccc2O)N1 (stereo not drawn) | inconclusive [activator, single point] |
| O=C1CCNc2ccc(-c3ccccc3)cc21 | inconclusive [activator, partial curve] |
| O=C(N/N=C/c1cccs1)c1ccc2c(c1)OCO2 | active: 2.51 µM |
| COc1ccc(NS(=O)(=O)c2ccc3c(c2)NC(=O)CCS3)cc1Cl | inactive |
| COc1ccc(-c2nnc(SCC(=O)Nc3cccc(Cl)c3)o2)cc1 | inconclusive [activator, partial curve] |
| Cc1ccccc1NC(=O)Cc1nc(COC(=O)c2cccnc2Cl)cs1 | inactive |
| COc1ccc(Nc2ncnc3sccc23)cc1 | inconclusive [activator, partial curve] |
| CC(=O)N1CCN(c2ccc(NC(=O)c3ccc(N4CCCC4)c([N+](=O)[O-])c3)cc2Cl)CC1 | inconclusive [activator, single point] |
| CC1(C)CNC(=O)c2sc(NC(=O)c3ccccc3)nc2C1 | inconclusive [activator, single point] |
| Cc1onc(-c2ccccc2Cl)c1C(=O)N1CCN(c2cccc(Cl)c2)CC1 | inactive |
| CCn1c(C)cc(C=C2C(=O)c3ccccc3C2=O)c1C | inconclusive [activator, single point] |
| O/N=C/c1ccc(OCc2ccccc2)c(Cl)c1 | inconclusive [activator, partial curve] |
| N#Cc1cc2cc3c(cc2nc1SCC(=O)N1CCOCC1)OCCO3 | inconclusive [activator, full curve] |
| O=C(Nc1ccc(F)cc1)c1ccc(CSc2ccccc2)o1 | inactive |
| O=C(OCC(=O)N1CCOCC1)c1ccc2ccccc2c1O | active: 3.16 µM |
| Cc1ccc(Nc2nc(C3CC3)cs2)cc1 | active: 3.98 µM |
| BrC(=C\c1ccccc1)/C=N/N1CCN(c2ccccn2)CC1 | inconclusive [activator, partial curve] |
| O=C(NC1CCCCCCC1)NC1CCCCC1 | active: 3.55 µM |
| Cc1cc(O)ccc1Nc1nc(-c2cccnc2)cs1 | inconclusive [activator, single point] |
| CCN(CC)C(=O)OCc1c(-c2ccccc2)ncc2ccccc12 | inconclusive [activator, single point] |
| C=COC(=O)c1sc2nc(C)cc(C)c2c1N | inactive |
| O=C(Nc1ccc(SC(F)F)cc1)c1ccc2nccnc2c1 | inconclusive [activator, partial curve] |
| COc1ccc(OCC(=O)Nc2nonc2NC(=O)COc2ccc(OC)cc2)cc1 | inactive |
| Cc1cc(NC(=O)C(C)C)ncc1NC(=O)c1ccccn1 | inconclusive [activator, partial curve] |
| c1ccc(-c2csc(N3CCOCC3)n2)cc1 | inconclusive [activator, single point] |
| COc1ccc(CNC(=O)c2ccc(-c3ccccc3)cc2)cc1OC | inactive |
